Data published in PubChem BioAssay AID488969 (Vanderbilt High Throughput Screening Facility, 2010).
In all, about 110,000 compounds were measured (“z-score”: median about -0.1, highest 2% from about 2 on). The list shows a part of the results.

Target: Metabotropic glutamate receptor 8 (Rattus norvegicus) (UniProt P70579)
Experiment: rat mGluR8 modulators via GIRK flux, primary screen, cell-based, thallium flux, HTS (AID 488969)
Details: HEK293 rat mGluR8, GIRK (G protein-gated inwardly rectifying potassium channel) thallium flux, FluoZin2; at 10 µM; stronger effect = higher value

Chain of UniProt P70579 (P70579 whole entry, looked up): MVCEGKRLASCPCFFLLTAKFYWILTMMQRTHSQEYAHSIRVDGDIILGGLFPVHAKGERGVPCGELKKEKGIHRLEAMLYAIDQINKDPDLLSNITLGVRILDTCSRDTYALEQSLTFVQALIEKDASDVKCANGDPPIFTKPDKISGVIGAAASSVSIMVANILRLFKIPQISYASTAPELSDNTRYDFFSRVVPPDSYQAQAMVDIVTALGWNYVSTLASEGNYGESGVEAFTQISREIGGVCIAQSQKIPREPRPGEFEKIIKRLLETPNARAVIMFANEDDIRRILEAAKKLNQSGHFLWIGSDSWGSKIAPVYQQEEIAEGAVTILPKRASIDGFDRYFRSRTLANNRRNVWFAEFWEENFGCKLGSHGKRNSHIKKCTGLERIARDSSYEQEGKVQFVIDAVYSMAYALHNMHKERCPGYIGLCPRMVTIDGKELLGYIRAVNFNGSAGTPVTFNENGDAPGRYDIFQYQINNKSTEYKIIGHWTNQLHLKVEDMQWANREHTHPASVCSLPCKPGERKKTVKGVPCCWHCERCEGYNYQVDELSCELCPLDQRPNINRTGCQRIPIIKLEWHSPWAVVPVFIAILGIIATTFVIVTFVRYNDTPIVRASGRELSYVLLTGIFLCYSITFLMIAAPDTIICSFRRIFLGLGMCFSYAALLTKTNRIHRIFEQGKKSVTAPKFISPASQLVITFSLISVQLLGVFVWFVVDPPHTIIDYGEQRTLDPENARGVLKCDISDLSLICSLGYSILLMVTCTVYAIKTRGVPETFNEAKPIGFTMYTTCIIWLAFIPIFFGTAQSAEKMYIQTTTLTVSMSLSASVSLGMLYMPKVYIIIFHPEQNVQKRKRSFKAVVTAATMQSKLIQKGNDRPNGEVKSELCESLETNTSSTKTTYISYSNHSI

Row | SMILES | z-score
1 | CCCSc1nc(O)c(CC)c(=O)n1C(C)CC (stereo not given) | -0.288
2 | CCC(=NCc1cccnc1)c1c(O)n(Cc2ccccc2)c(=O)[nH]c1=O | -0.0208
3 | COc1ccc(C2=NCC(=O)N(CC(=O)NCc3ccco3)c3sc4c(c32)CCCC4)cc1OC | -1
4 | Cc1c(NC(=O)C(C)OC(=O)Cc2ccccc2)c(=O)n(-c2ccccc2)n1C (stereo not given) | -0.0944
5 | CCCCn1c(O)c(C(CC)=NCc2cc(OC)cc(OC)c2)c(=O)[nH]c1=O | -0.703
6 | O=C(Nc1ccc(Br)cc1)c1nn(C23CC4CC(CC(C4)C2)C3)cc1Br | -0.238
7 | c1ccc(CNC2=NCCS2)cc1 | 0.134
8 | CCOc1cc(C2NCc3ccccc3-n3cccc32)ccc1O (stereo not given) | 1.71
9 | CCC(C)(C)n1nnnc1CN1CCC(n2c(C)nc3cc(C(F)(F)F)ccc32)CC1 | -0.21
10 | CCCCn1c(O)c(C(C)=NCC2CCCO2)c(=O)[nH]c1=O (stereo not given) | -0.427
11 | O=C1NC(=O)N(c2ccc3c(c2)OCO3)C(=O)/C1=C\c1ccc(N2CCCCC2)o1 | -0.906
12 | CCN1CCN(Cc2cc(OC)c(OC)cc2[N+](=O)[O-])CC1 | -0.494
13 | O=C(C1CCCO1)N1CCC2(CC1)OCCO2 (stereo not given) | -0.26
14 | Cc1nc2cc(F)ccc2n1C1CCN(Cc2nnnn2CCc2ccccc2)CC1 | 0.0251
15 | O=c1[nH]c(=S)n(-c2ccccc2F)c(O)c1C=NCc1ccco1 | 0.14
16 | Cc1ccsc1-c1nc(CSCC(=O)N2CCC3(CC2)OCCO3)c(C)o1 | -0.00292
17 | Cc1cc(S(=O)(=O)NCc2ccccc2)ccc1OCC(=O)N1CCN(C)CC1 | 0.0532
18 | Cc1cc(C)cc(N2C(=O)NC(=O)/C(=C/c3cccn3-c3ccc(Cl)cc3)C2=O)c1 | -0.118
19 | CC12CN3CCN(C1)CC(C)(C3)C2=NO | -0.429
20 | O=C(CNC(=O)c1ccccc1)Nc1ccc(Br)cc1C(=O)c1ccccc1 | -1.27
21 | CCn1c(O)c(/C(C)=N/N2CCCCC2c2cccnc2)c(=O)[nH]c1=S (stereo not given) | -0.0159
22 | CCNC(=O)NC(=O)C(C)OC(=O)c1c(C)nn(Cc2ccccc2Cl)c1Cl (stereo not given) | -0.396
23 | O=S(=O)(c1ccc(Cl)cc1)N1CC1c1ccccc1 (stereo not given) | -0.166
24 | Cc1ccc(C(c2nnnn2Cc2ccccc2)N2CC=C(c3ccc(F)cc3)CC2)cc1 (stereo not given) | 0.127

Row | SMILES | z-score
25 | Oc1ccc(/C=N/NP(=S)(c2ccccc2)c2ccccc2)cc1 | 1.52
26 | C=CCN1C(=O)/C(=C/c2ccc3c(c2)CCCN3CCC)C(=O)NC1=S | -0.695
27 | O=c1[nH]c(O)c(/C=C2\C=NN=C2c2ccccc2)c(=O)[nH]1 | -0.00409
28 | O=P(/C(=N/O)N1CCOCC1)(N1CCOCC1)N1CCOCC1 | -0.127
29 | O=C(OCC(=O)c1ccc([N+](=O)[O-])cc1)/C(=C/c1ccc(Cl)cc1)NC(=O)c1ccccc1 | 0.891
30 | CCN1CCN(Cc2ccc(OC(F)(F)F)cc2)CC1 | 0.803
31 | Cc1ccc2c(c1)N(N=O)CCC2 | 0.189
32 | O=C(CF)NC(Nc1cccc2cccnc12)C(Cl)(Cl)Cl (stereo not given) | -0.523
33 | CCC(=NCc1ccco1)c1c(O)n(C2CCCCC2)c(=O)[nH]c1=O | -0.722
34 | CN(C)CC1CSCCC1(O)c1ccc(C(F)(F)F)cc1 (stereo not given) | -0.151
35 | N#CCP(=S)(c1ccccc1)c1ccccc1 | -0.272
36 | CCOC(=O)C(O)(c1cn(C)c2ccccc12)C(F)(F)F (stereo not given) | -0.0638
37 | Cc1cccc(-c2nc3ccccc3c(=O)n2-n2cccc2)c1 | -1.42
38 | COc1cc(/C=N/n2cnnc2)ccc1OC(=O)N(C)C | 0.106
39 | Cc1ccc(-c2nc3ccccc3c(=O)n2-c2cc(C)ccn2)cc1 | -0.23
40 | CCCCCSc1cc(O)c(C(CNC)C(C)C)cc1OC (stereo not given) | 0.00978
41 | CN1C(=O)C(C2c3ccccc3C(=O)N2Cc2ccccc2)C(=O)N(C)C1=O (stereo not given) | 0.585
42 | CCc1cccc2c(C#N)cn(CC(=O)N3CCOCC3)c12 | 0.394
43 | CCn1c(C)c(C(=O)O)c2cc(OC)ccc21 | -0.484
44 | COc1ccc(C2NCc3ccccc3-n3cccc32)cc1 (stereo not given) | 2.1
45 | CC1OC(NCCc2ccccc2)C(O)C(O)C1O (stereo not given) | 0.00686
46 | CCCCC12CNCC(C)(CNC1)C2=O | 0.332
47 | CCN1c2nc3c(C)cccn3c(=O)c2CC2(C(=O)N(C)C(=O)N(C)C2=O)C1C (stereo not given) | 0.294
48 | CC(Cc1ccccc1)NC(=O)Cc1ccc(N(C)C)cc1 (stereo not given) | -0.255

Row | SMILES | z-score
49 | CN1C(=O)C(=Cc2ccccc2Oc2ccc(Cl)c(F)c2)C(=O)N(C)C1=O | -0.0902
50 | CC(=O)c1ccc(OC(NC(=O)c2ccco2)C(Cl)(Cl)Cl)cc1 (stereo not given) | -0.156
51 | COc1ccccc1N1CCN(C(CNC(=O)Oc2ccccc2)c2cccnc2)CC1 (stereo not given) | 0.0633
52 | CC1CCC(C(C)C)C(OP(N)(=O)c2ccccc2)C1 (stereo not given) | -0.413
53 | O=C1/C(=C\c2ccc3c(c2)OCO3)N2CCC1CC2 | -0.1
54 | Cc1ccc(C(=O)Nc2ccc(Cl)cc2C(=O)c2ccccc2)cc1 | -0.334
55 | O=P(NS(=O)(=O)c1ccc(Br)cc1)(Oc1ccccc1)Oc1ccccc1 | 0.284
56 | C=CCN1C(=O)C2(C(C(=O)OCC)=C(N)Oc3c2c(=O)oc2ccccc32)c2ccccc21 (stereo not given) | -0.965
57 | Cc1ccc(N(C)C(=O)Oc2cccc3cccnc23)cc1 | -0.206
58 | COc1ccccc1N=Cc1c(O)n(C)c(=O)n(C)c1=O | -0.293
59 | Cc1nc2c(-c3ccccc3)c(C)nn2c(C)c1CCC(=O)N1CCC2(CC1)OCCO2 | -0.584
60 | O=C1NC(=S)NC(=O)C1C/C=C/c1ccccc1 | 0.496
61 | Cc1cccc(N2C(=O)/C(=C/c3ccc(CN(CCC#N)S(C)(=O)=O)o3)C(=O)NC2=S)c1 | -0.361
62 | O=C(CN1CCN(Cc2ccc(Cl)cc2)C1=O)N1CCC2(CC1)OCCO2 | 0.275
63 | C=Cn1ccnc1P(=S)(c1nccn1C=C)C1CCCCC1 | -0.0699
64 | CN(C)CC1CSCCC1(O)c1cccc(Cl)c1 (stereo not given) | 0.741
65 | O=c1c2ccccc2nc(-c2ccc(-c3ccccc3)cc2)n1-c1ccncc1 | 0.336
66 | CC(=O)N1CN2CN(C(C)=O)CC(C(=O)c3ccc(Br)cc3)(C2)C1 | -0.181
67 | CCC1(c2ccccc2)C(=O)N(COC)C(=O)N(COC)C1=O | 0.0401
68 | CC(C)(C)c1ccc(S(=O)(=O)N2CC3CC(C2)c2cccc(=O)n2C3)cc1 (stereo not given) | -0.293
69 | COc1ccc(-n2c(O)c(C=NCCCn3ccnc3)c(=O)[nH]c2=O)cc1 | 0.21
70 | O=C(c1ccc2c(=O)n(Cc3ccc4c(c3)OCO4)c(=S)[nH]c2c1)N1CCC2(CC1)OCCO2 | -0.113
